# Measurements as given in PMC6919601, “Identification of Plasmodium dipeptidyl aminopeptidase allosteric inhibitors by high throughput screening” (PLoS ONE, 2019).
# About 230 (0.21%) of roughly 110,000 compounds showed an effect of 50% or more. The list shows a part of the results.
# Target: DPAP1 (Plasmodium falciparum, UniProt Q8IIJ9)
# Assay: primary screen, percent inhibition; read by cleavage of a fluorogenic dipeptide substrate; higher = more effect of the substance
# Design: species or system P. falciparum D10 trophozoite lysates; single well
# 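Also: 30 min substrate incubation versus DMSO and 10 µM JCP410 controls.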
# Chain of DPAP1 (Q8IIJ9 whole entry, looked up): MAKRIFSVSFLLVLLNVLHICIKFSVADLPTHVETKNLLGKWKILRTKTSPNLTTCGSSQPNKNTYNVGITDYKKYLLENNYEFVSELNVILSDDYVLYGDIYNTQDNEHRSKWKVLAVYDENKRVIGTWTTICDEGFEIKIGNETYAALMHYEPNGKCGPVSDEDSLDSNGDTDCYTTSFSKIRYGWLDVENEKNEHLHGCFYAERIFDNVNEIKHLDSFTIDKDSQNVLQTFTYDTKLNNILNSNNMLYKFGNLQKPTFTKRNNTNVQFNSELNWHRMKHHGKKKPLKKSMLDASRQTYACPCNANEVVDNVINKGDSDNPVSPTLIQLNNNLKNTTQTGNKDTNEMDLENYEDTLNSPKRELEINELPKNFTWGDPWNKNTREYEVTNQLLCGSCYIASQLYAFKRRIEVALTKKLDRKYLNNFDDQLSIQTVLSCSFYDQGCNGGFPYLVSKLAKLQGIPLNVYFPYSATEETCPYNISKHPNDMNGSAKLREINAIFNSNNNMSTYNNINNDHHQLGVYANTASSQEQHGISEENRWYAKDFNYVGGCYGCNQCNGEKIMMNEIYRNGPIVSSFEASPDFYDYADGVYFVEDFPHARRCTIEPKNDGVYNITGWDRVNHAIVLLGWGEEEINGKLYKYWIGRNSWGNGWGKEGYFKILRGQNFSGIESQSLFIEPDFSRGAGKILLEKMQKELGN
row,Structure (SMILES),% Inhibition @ 10 uM
1,Cc1cccc(C(=O)NC2(C(F)(F)F)C(=O)Nc3c2c(=O)[nH]c(=O)n3-c2ccc(F)cc2)c1 (stereo not drawn),2.76%
2,CCCc1ccc(OCc2ccc(C(=O)O)cc2)c(OC)c1,3.47%
3,O=Cc1c(C(=O)O)n(Cc2ccc(F)cc2Cl)c2ccccc12,3.24%
4,CC(=O)N1N=C(c2ccccc2)OC1(C)c1ccc(Br)cc1 (stereo not drawn),-4.73%
5,CC(C)(C)C(=O)Nc1ccc(C(=O)Nc2cccc(C(=O)O)c2)cc1,-6.29%
6,CCOc1ccc(CCNCc2c(C(=O)O)n(Cc3ccccc3F)c3cc(OC)ccc23)cc1,4.14%
7,Cc1nn(CC(=O)NCCCN2CCCC2=O)c(=O)c2nn(-c3ccccc3)c(C)c12,-2.12%
8,N=C1/C(=C\c2ccc(OCc3cccc4ccccc34)cc2)C(=O)N=C2SC(N3CCOCC3)=NN12,-3.44%
9,CCCCN(C)C(=O)c1oc2ccc(S(=O)(=O)N3CCCCCC3)cc2c1C,4.36%
10,CCOc1cc(C2C3=C(CCCC3=O)OC3=C2C(=O)CCC3)ccc1O,-17.2%
11,Cc1nnc(SCC(=O)Nc2ncc3c(n2)CCCC3=O)s1,0.032%
12,COc1ccc(C2=NOC(C(=O)N3CCN(C(=O)c4ccco4)CC3)C2)cc1 (stereo not drawn),4.74%
13,COCCNC(=O)c1cc(-c2ccc(C)c(C)c2)nc2ccccc12,1.57%
14,Cc1ccc(C)c(C2C(C#N)=C(N)OC3=C2C(=O)CC(C)(C)C3)c1 (stereo not drawn),5.66%
15,CN(Cc1ccccc1)c1c2c(nc3nncn13)CCC2,-2.57%
16,Cc1ccc(-n2ncc3c(O)nc(SCC(=O)NC4CCCCC4)nc32)cc1C,-5.22%
17,CCOc1ccc(C2c3c(oc4cc(C)c(C)cc4c3=O)C(=O)N2c2nccs2)cc1OC (stereo not drawn),2.1%
18,COc1ccc(N(CC(O)CN2CCCCC2)S(=O)(=O)c2ccccc2)cc1 (stereo not drawn),-3.09%
19,CCSc1nnc(-c2ccccc2)n1N,-3.63%
20,O=C(O)CCCC(=O)Nc1ccc(Cl)cc1Cl,0.505%
21,Cc1ccccc1OCC(=O)Nc1ccc(CN2CCCCC2)cc1,-1.59%
22,Cc1ccc2c(c1)-c1onc(C(=O)NCc3ccccc3Cl)c1CO2,0.589%
23,COc1cc(C)c(CN2CCCN(C)CC2)cc1C,-2.08%
24,COc1ccc(-c2cc(C(=O)NCC3CCCO3)c3cc(C(C)C)ccc3n2)cc1 (stereo not drawn),1.16%
25,CC1(C)CC(=O)C2=C(C1)N(CC1CCCO1)C(=O)NC2(C(F)(F)F)C(F)(F)F (stereo not drawn),-3.33%

row,Structure (SMILES),% Inhibition @ 10 uM
1,Cc1cc(Cl)ccc1OCC(=O)Nc1cc(C(F)(F)F)ccc1N1CCOCC1,-0.173%
2,CCOC(=O)c1c(C)oc2c1c(/C=N/Cc1ccccc1)c(O)c1ccccc12,-3.21%
3,CC(C)(C)C1CCC(N2CCN(c3ccc(F)cc3)CC2)CC1 (stereo not drawn),1.57%
4,O=C(CO)c1ccc2cc[nH]c2c1,0.66%
5,O=C(CCc1nnc2n(CCc3ccccc3)c(=O)c3ccccc3n12)N1CCc2ccccc2C1,2.6%
6,CC(C)Cc1nnc(NS(=O)(=O)c2ccccc2)s1,2.04%
7,CCc1c(C)nc(N2CCOCC2)nc1O,-2.91%
8,COCCN(Cc1cccs1)Cc1cc(=O)oc2ccc(OC)cc12,1.67%
9,Cc1cc(C(=O)O)ccc1-c1ccc(/C=C2\SC(=O)N(CC(=O)N3CCOCC3)C2=O)o1,11.2%
10,c1ccc(CCN2CCC(NC(c3ccccc3)c3ccccc3)CC2)cc1,3.19%
11,O=C(Cc1ccccc1)N1N=C(C(F)F)CC1(O)C(F)F (stereo not drawn),0.5%
12,NC(=O)c1ccc(-n2c(CCC(=O)O)ccc2-c2cccs2)cc1,-4.75%
13,CCOc1ccc(C(=O)Nc2ccc(F)cc2)cc1,2.06%
14,Cc1c(C)n(Cc2ccccc2)c2ccc(C(=O)NCc3ccccn3)cc12,-1.55%
15,COc1ccccc1N1CCN(C(=O)CCCC(=O)O)CC1,0.751%
16,CCNC(=O)N1c2ccc(C)cc2C2CN(C)CCC21 (stereo not drawn),-0.261%
17,CC(Oc1ccc(Cl)cc1Cl)C(=O)NCc1ccc(F)cc1 (stereo not drawn),-5.92%
18,CC(=O)NCC/N=C/C1=C(O)c2sccc2N(Cc2ccccc2)S1(=O)=O,0.886%
19,CC(Sc1nc(-c2ccccc2)cc(C(F)(F)F)n1)C(=O)NCCCn1ccnc1 (stereo not drawn),0.778%
20,COc1ccc(CCNC(=O)c2ccc3c(c2)ncn3-c2ccc(F)cc2F)cc1OC,16.4%
21,O=c1/c(=C\c2cccc(O)c2)sc2nc3ccccc3n12,-0.142%
22,O=C(COc1ccc(Cl)cc1)Nc1ccc(S(=O)(=O)N2CCCCCC2)cc1,-2.3%
23,CCOC(=O)N1CCN(C(=O)CCCn2nc(C)n3c(cc4sccc43)c2=O)CC1,3.4%
24,Cc1cc(C)n2nc(-c3ccc(-c4ccccc4)cc3)cc2n1,-4.8%
25,CCCCN(CC)c1ncnc2ccc(Br)cc12,2.17%

row,Structure (SMILES),% Inhibition @ 10 uM
1,Cc1ccc(C2CC(=O)NC3=C2C(=O)CCC3)cc1Br (stereo not drawn),-3.21%
2,COc1ccc(CCNC(=O)C2CCN(S(=O)(=O)N3CCC4(CC3)OCCO4)CC2)cc1OC,-1.21%
3,CC1CCC(NC(=O)Cn2ncc3c4ccccc4n(Cc4ccccc4F)c3c2=O)CC1 (stereo not drawn),-3.35%
4,O=C(COC(=O)c1ccco1)c1ccc(-n2nncc2-c2ccco2)cc1,-0.349%
5,COc1cccc2c1cc1c(=O)n(CC(=O)N3CCCCCC3)nc(C)n12,-3.47%
6,CCN(Cc1ccccc1)C(=O)c1cccc([N+](=O)[O-])c1,-4.3%
7,COc1cc(/C=C2/NC(=O)N(Cc3ccccc3F)C2=O)cc(Cl)c1O,-1.28%
8,COCCN1C(=O)c2ccccc2C(C(=O)Nc2cccc(C)n2)C1c1c[nH]c2ccccc12 (stereo not drawn),5.62%
9,Nc1nnc(-c2cc(-c3cccs3)on2)o1,-1.72%
10,CC1CCc2c(sc(NC(=O)C3CC3c3ccccc3)c2C(N)=O)C1 (stereo not drawn),-4.21%
11,Cc1nc2sc(C(=O)c3ccc4c(c3)OCO4)c(N)c2c(-c2cccs2)c1C#N,3.62%
12,CN1C(=O)c2ccccc2C(C(=O)N2CCC3(CC2)OCCO3)C1c1cccs1 (stereo not drawn),1.94%
13,CS(=O)(=O)N(Cc1ccc(C(=O)NCc2ccc(Cl)cc2)cc1)c1ccccc1,1.59%
14,NC=C1C(=O)N(CCc2ccccc2)C(=O)N(CCc2ccccc2)C1=O,2.79%
15,O=C(CSCc1nc(O)c2nnn(Cc3ccc(F)cc3)c2n1)NC1CCCCCC1,0.238%
16,Cc1ccc(-c2nc3n(n2)C(=O)CC(c2ccco2)S3)cc1 (stereo not drawn),3.6%
17,COc1ccc(NC(=O)CN(c2ccccc2C)S(=O)(=O)c2ccccc2)cc1OC,-3.09%
18,Cc1cccc(C2C(=O)c3ccccc3C2=O)c1C,8.57%
19,ClC1(Cl)CC1CSc1nc[nH]n1 (stereo not drawn),-3.63%
20,CCOc1ccc(Sc2cc(C(=O)NCCN3CCOCC3)c3ccccc3n2)cc1,-1.79%
21,Cc1ccc(C(=O)Nc2ccc(Cl)c([N+](=O)[O-])c2)cc1,-0.414%
22,CC(Cc1ccccc1F)N[C@H]1CCCCNC1=O (stereo partly drawn),3.35%
23,COc1ccc(-n2nc3ccc(NC(=O)COc4ccccc4C)cc3n2)cc1,1.64%
24,C=CCNC(=O)/C(=C\c1ccco1)NC(=O)c1ccccc1Cl,19%
25,CC1CCN(Cc2nc3c(c(=O)n(C)c(=O)n3C)n2CCCO)CC1,-3.23%

row,Structure (SMILES),% Inhibition @ 10 uM
1,Clc1cccc(NCc2ccc3c(c2)OCO3)c1,-5.98%
2,COc1ccc(C2Nc3ccccc3C(=O)N2Cc2ccccc2)cc1CN1CCOCC1 (stereo not drawn),-9.66%
3,COc1cc(C(O)c2cc3c(cc2CO)OCO3)cc(OC)c1OC (stereo not drawn),-1.49%
4,N#Cc1nc(COc2ccccc2Cl)oc1NCc1ccc(F)cc1,-1.98%
5,CCC(NC(=O)c1cc(OC)c(OC)c(OC)c1)C12CC3CC(CC(C3)C1)C2 (stereo not drawn),0.503%
6,C=CCn1c(=N)c(C(=O)NCC)cc2c(=O)n3ccccc3nc21,3.72%
7,CC1CC(C)(C)NC(=S)N1CCC(=O)NCCc1ccc(Cl)cc1 (stereo not drawn),2.73%
8,Oc1ccccc1-c1n[nH]c(/C=C/c2ccccc2Cl)n1,-6.64%
9,Cc1[nH]nc2c1C(c1ccccc1F)C(C#N)=C(N)O2 (stereo not drawn),1.41%
10,COc1cccc(-n2nnc3c(=O)n(C/C=C/c4ccccc4)cnc32)c1,1.24%
11,COC(=O)c1ccc(-c2ccco2)n1CC(=O)N1CCN(c2ccccn2)CC1,-1.38%
12,CCOC(=O)N1CCC(NC(=O)c2ccc3nc(N4CCCCC4)sc3c2)CC1,-2.37%
13,COc1ccc(-c2ccc(C#N)c(SCC(=O)NCc3ccc(F)cc3)n2)cc1OC,-2.45%
14,CCc1nnc(SCC(=O)NC2CCCCC2)nc1CC,4.52%
15,CCOC(=O)c1c(S(=O)(=O)NCCC(C)N2CCOCC2)c(C)n(C)c1C (stereo not drawn),-6.25%
16,COC(=O)C1=C(C)N=C2SCCC(=O)N2C1c1ccccc1 (stereo not drawn),2.05%
17,Oc1nc2nonc2nc1Nc1ccccc1,1.29%
18,CCN(CC)C(=O)CN(c1cc(C)cc(C)c1)S(=O)(=O)c1ccccc1,2.02%
19,Clc1ccccc1CN1CCN(Cc2ccccc2)CC1,-0.127%
20,COc1cc(C2CC(=O)N3CN(C4CCCCC4)CSC3=C2C#N)ccc1O (stereo not drawn),-1.28%
21,COc1ccc(C2SC(C)C(=O)N2c2ccc(C)cc2)cc1 (stereo not drawn),-3.44%
22,Cc1ccc2c(CN3CCN(Cc4ccc5c(c4)OCO5)CC3)cc(=O)oc2c1,3.27%
23,Cc1cccc(N2C(=O)CC(N3CCN(C4CC(=O)N(c5ccccc5C)C4=O)CC3)C2=O)c1 (stereo not drawn),-2.73%
24,COCCNC(=O)C1CCN(S(=O)(=O)c2ccc3c(c2)nc(C)n3C2CCCC2)CC1,-1.75%
